Screen size: about 310,000 compounds; about 2,200 (0.71%) showed an effect of 50% or more. Effects have a minus sign here. Some of the results follow.
target: human ether-à-go-go-related gene (hERG) potassium channel (human, UniProt Q12809); test: primary screen, population patch clamp on CHO cells stably expressing hERG
Sequence (Q12809 whole entry, looked up): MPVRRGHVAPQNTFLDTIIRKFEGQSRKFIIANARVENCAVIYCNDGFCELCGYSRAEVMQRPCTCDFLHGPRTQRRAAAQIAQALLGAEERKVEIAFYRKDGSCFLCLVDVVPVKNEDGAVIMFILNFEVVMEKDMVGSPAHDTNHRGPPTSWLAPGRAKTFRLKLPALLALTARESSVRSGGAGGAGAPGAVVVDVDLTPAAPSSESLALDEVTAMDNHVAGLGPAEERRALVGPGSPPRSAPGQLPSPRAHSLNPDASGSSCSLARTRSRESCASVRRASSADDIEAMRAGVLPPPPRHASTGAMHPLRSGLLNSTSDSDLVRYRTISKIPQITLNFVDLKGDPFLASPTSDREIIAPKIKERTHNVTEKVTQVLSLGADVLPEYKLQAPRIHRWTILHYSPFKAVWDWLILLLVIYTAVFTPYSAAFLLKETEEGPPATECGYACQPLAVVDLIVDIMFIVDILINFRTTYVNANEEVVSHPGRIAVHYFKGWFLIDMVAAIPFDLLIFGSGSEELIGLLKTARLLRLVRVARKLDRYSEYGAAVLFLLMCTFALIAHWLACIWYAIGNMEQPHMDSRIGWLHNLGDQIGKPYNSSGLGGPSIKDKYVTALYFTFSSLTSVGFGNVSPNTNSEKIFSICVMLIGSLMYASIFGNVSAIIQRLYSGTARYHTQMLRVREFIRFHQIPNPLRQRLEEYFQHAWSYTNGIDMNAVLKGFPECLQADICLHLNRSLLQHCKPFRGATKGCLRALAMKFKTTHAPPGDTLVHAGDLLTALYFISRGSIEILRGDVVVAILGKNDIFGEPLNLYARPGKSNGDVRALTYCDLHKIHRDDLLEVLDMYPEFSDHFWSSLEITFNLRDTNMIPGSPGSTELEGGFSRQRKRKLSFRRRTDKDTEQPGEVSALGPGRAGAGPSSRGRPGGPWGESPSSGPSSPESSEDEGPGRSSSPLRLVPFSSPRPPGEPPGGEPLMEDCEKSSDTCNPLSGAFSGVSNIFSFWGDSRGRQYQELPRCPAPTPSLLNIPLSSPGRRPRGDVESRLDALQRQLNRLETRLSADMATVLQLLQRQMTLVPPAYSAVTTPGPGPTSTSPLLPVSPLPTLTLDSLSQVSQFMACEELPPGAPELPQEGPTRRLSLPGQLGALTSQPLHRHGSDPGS

SMILES	hERG current change (%, negative = inhibition) at 1uM
CCOc1ccc(C(=O)N2CCCC2C(=O)O)cc1 (stereo not drawn)	21.6%
Cc1ccc(S(=O)(=O)c2c(N)n(NC(=O)c3ccccc3C)c3nc4ccccc4nc23)cc1	5.01%
CCCCN(C)CCn1c(=S)[nH]c2ccc(N3CCOCC3)cc2c1=O	-18.4%
Cc1ccc(S(=O)(=O)NCCNC(=O)c2nonc2N)cc1	7.29%
Brc1ccccc1OCCCN1CCCCCC1.O=C(O)C(=O)O	-59.2%
O=C(Nc1ccc(F)c(F)c1)c1oc2ccccc2c1NC(=O)C1CCCO1 (stereo not drawn)	11.2%
Cn1ccnc1SCc1cn2cc(Br)ccc2n1	6.9%
COc1ccc2c(c1OC)C(=O)N1N=C(c3ccc(Cl)cc3)CC21 (stereo not drawn)	-3.88%
CCc1nc(C#N)c(N2CCCCC2)o1	9.88%
CN(C)NC(=S)Nc1ccc2nc(-c3ccccn3)c(-c3ccccn3)nc2c1	15.5%
CCN(CC)C(=O)CSc1nnc(-c2cccnc2)n1CCc1ccccc1	-0.995%
CC(C)NC(=O)Cn1c(SCC(=O)N2CCCc3ccccc32)nc2ccccc21	13.5%
CC(C)[C@H](NC(=O)[C@@H]1Cc2ccccc2CN1C(=O)OC(C)(C)C)C(=O)NC1CCCC1	10.8%
CCOc1ccc(-c2c(C(=O)N/N=C/c3cccnc3)nnn2-c2nonc2N)cc1	12.7%
COc1cc(C(=O)NCCC(=O)NCCN2CCCCCC2)cc(OC)c1OC	1.92%
Oc1ccc(-c2nnc(-c3ccc(O)cc3)nn2)cc1	11.5%
CC(=O)c1ccc(NC(=S)N2CCN(c3cccc(Cl)c3)CC2)cc1	12.6%
CCOc1ccc(C(=O)Nc2ccccc2C#N)cc1[N+](=O)[O-]	-24.3%
CCOC(=O)N1CCN(C(=O)CN(c2cc(Cl)ccc2OC)S(=O)(=O)c2ccccc2)CC1	17.7%
COc1ccc(C2SCC(=O)N2c2c(C)n(C)n(-c3ccccc3)c2=O)cc1 (stereo not drawn)	-1.72%
COc1ccc(Cl)c(NC(=O)C/C(C)=N/NC(=O)CCc2ccccc2)c1	8.11%
CN1CCN(c2ccc([N+](=O)[O-])cc2/C=N/NC(=O)c2cccc([N+](=O)[O-])c2)CC1	-8.39%
CC(=O)c1ccccc1OCCCN1CCCCC1.O=C(O)C(=O)O	-6.05%
N#Cc1cccnc1N1CCN(C(=O)c2ccco2)CC1	12.7%

From article PMC4336329 (PLoS ONE, 2015)
